Each structure is given as a SMILES string. Among all 50,000 compounds or so, about 800 (1.6%) showed an effect of 50% or more. This is one part of the list.

This experiment concerns the target Bcl-2-like protein 10 (Homo sapiens) (UniProt Q9HD36). Nature of the experiment: Phenotype converters, Bcl-B/TR3 peptide binding displacement, primary biochemical FP (AID 1240).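 Also: 0% = Bcl-B with tracer peptide and DMSO and 100% = tracer peptide lacking Bcl-B.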 To be noted: GST-Bcl-B / FITC-TR3 peptide fluorescence polarization; stronger effect = higher value; compound at 3.75 mg/L. A general note: In fluorescence polarisation assays a small probe gives low polarisation when free and higher when bound to something large.
Chain of UniProt Q9HD36 (Q9HD36 whole entry, looked up): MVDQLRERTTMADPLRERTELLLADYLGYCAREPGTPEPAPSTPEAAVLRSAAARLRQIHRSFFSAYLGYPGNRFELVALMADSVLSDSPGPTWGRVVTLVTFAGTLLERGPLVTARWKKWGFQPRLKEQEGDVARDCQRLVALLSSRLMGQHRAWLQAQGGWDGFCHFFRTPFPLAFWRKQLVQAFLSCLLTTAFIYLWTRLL
On to `CC(=O)Nc1ccc2oc(-c3ccccc3)nc2c1`, for which the displacement is -3.7%.

As for `O=C1OC(c2ccccc2)=N/C1=C(\Sc1nc2ccccc2o1)c1ccccc1`, the displacement worked out at 0.3%. For `NC(=O)c1cc(NC(=O)c2cc(C(F)(F)F)cc(C(F)(F)F)c2)c(Cl)cc1Cl`, the displacement was -11.3%. As for `COC(=O)c1cc(S(=O)(=O)N2CCCC2)c(Cl)cc1Cl`, the displacement is -3.2%. To `COc1ccc(S(=O)(=O)Nc2ccc(C#N)cc2)cc1` belongs 2.2%.

Take `Cc1ccc(N(CC(=O)Nc2ccc(Oc3ccccc3)cc2)S(C)(=O)=O)cc1Cl`: the displacement came out at 3.4%. To `CSc1nnc2c(n1)OC1(Nc3ccccc3-2)C(=O)Nc2ccccc21` (centres undefined) belongs 10.8%; to `C=CCC1(N(C(C)=O)c2ccccc2)CCCCC1`, -10.4%.

On to `CN=C(Nc1cccc(OC)c1)SC1CC(=O)N(c2ccccc2F)C1=O` (centres undefined), for which the displacement is -5.3%. To `CCOc1ccccc1NC(=O)CN1C(=O)/C(=C\c2cc(OC)c(OC)c(OC)c2)SC1=S` belongs 36.8%.

Regarding `O=C(/C=C/c1ccccc1)Nc1ccc2c(c1)OCCO2`, the displacement was found to be 3.5%. Next, `Cc1cccc(NC(=O)c2cccc(C(=O)Nc3cccc(C)c3)n2)c1`: -5.4%; `CCOc1ccc(NC(=O)c2ccc(C(=O)c3ccccc3)cc2)c([N+](=O)[O-])c1`: -11.2%; `CN1CCN(C(=O)c2ccc(Cl)cc2[N+](=O)[O-])CC1`: 10%. To `O=C(NCc1ccc(Cl)cc1)c1cccc(Br)c1` belongs 5.1%. In the case of `COc1cc(CC(=O)N2CCOCC2)c(Cc2cc(OC)c(OC)cc2CC(=O)N2CCOCC2)cc1OC`, the displacement amounted to 5.1%.

For `O=C(O)c1ccccc1S(=O)CCO` (centres undefined), the displacement amounted to 6.8%. Next, `COc1cccc(-n2c(CCN3C(=O)c4ccccc4C3=O)nc3ccccc3c2=O)c1`: 1.5%. To `CCCCNC(=O)Cn1nc(C(F)(F)F)c(Br)c1C` belongs 5.8%. To `O=C1C(=O)N(c2ccccn2)C(c2cccnc2)/C1=C(/O)c1ccccc1` (centres undefined) belongs -14.6%; to `Cc1ccc(C2Nc3ccccc3NC3=C2C(=O)CC(c2ccc(Cl)cc2)C3)cc1[N+](=O)[O-]` (centres undefined), -8.5%; to `CCOC(=O)C(=O)Nc1c(O)c2ccccc2[nH]c1=O`, 8.9%. Regarding `CN1CCN(C2=NC(=O)/C(=C/c3ccc4c(c3)OCO4)S2)CC1`, the displacement amounted to 0.1%.

On to `Cc1cc2nc3s/c(=C/c4ccc5c(c4)OCO5)c(=O)n3c2cc1C`, for which the displacement is -11.4%.

Turning to `O=C1C(=O)N(c2nncs2)C(c2ccc(Cl)cc2)/C1=C(\O)c1ccc(F)cc1` (centres undefined), the displacement stood at 20.8%. Next, `O=C1/C(=C/c2ccccc2Cl)SC(=S)N1c1ccc(Br)cc1`: 16.9%; `CCCCOc1ccc(C(=O)Nc2ccc(S(=O)(=O)Nc3nccc(C)n3)cc2)cc1`: -3.3%. To `N/C(=N/c1nc2ccccc2o1)NC(=O)c1sc2ccccc2c1Cl` belongs 51.6%. To `COc1ccc(Br)cc1C(=O)Nc1cccc(S(N)(=O)=O)c1` belongs -0.9%.
